Assay results reported in PubChem BioAssay AID504832 (National Center for Advancing Translational Sciences (NCATS), 2011).
Several values for one entry are separate records, joined by “and”; a condition that tells them apart may be missing. Identical values can stand only once. Among all 310,000 compounds or so, about 18,000 (5.8%) were called active. This list was built around the results that the source calls inconclusive (neither active nor inactive); the mix of calls is not that of the screen. Calls come from the whole dose curve; as a rule, active = well fitted inhibition curve with a large enough effect; inconclusive = small, poorly fitted or top-dose-only effect, or another doubt; inactive = no such curve, though single readings can be large or run the other way. Potencies of inconclusive entries are doubtful fits and often do not repeat.

Test: Primary qHTS for delayed death inhibitors of the malarial parasite plastid, 48 hour incubation
Conditions: P. falciparum luciferase growth in erythrocytes; series mostly up to 28.7 µM
In short: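 Read-out is firefly luciferase luminescence from an integrated reporter in P. falciparum, so falling signal marks reduced parasite growth. Infected erythrocytes were at 2% hematocrit and 0.1% parasitemia (final) in Albumax-supplemented RPMI 1640.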
Potency is the fitted concentration of half-maximal effect; tags give direction and shape of the fitted curve.

Q: With `CCOC(=O)c1cc(S(=O)(=O)N2CCN(Cc3ccccc3)CC2)cn1C` as the compound, how does the Potency read?
A: Its Potency is “inactive”.

Q: With `Cc1ccc2cc(C(c3nnnn3C3CCCC3)N3CCN(c4ccccc4)CC3)c(=O)[nH]c2c1` (stereo not given) as the compound, how does the Potency read?
A: The Potency was inconclusive: 1.47 µM [inhibitor, full curve].

Q: For `O=C(c1ccco1)N1CCN(c2ccc(S(=O)(=O)N3CCCC3)cc2)CC1`, which Potency is on record?
A: Its Potency is inconclusive: 10.4 µM [inhibitor, single point].

Q: For `COc1ccc(OC)c(NC(=O)CC2SC(=Nc3ccc(F)cc3)N(CCC3=CCCCC3)C2=O)c1` (stereo not given), which Potency is on record?
A: The Potency was inconclusive: 16.5 µM [inhibitor, single point].

Q: Which Potency does the source give for `CCOC(=O)N1CCN(S(=O)(=O)c2ccc(F)c(C(=O)Nc3ccc(C)c(Cl)c3)c2)CC1` here?
A: The Potency was active: 13.1 µM.

Q: With `NCC(O)c1cc(O)c(O)cc1F` (stereo not given) as the compound, how does the Potency read?
A: Its Potency is inconclusive: 18.5 µM [inhibitor, single point].

Q: With `COc1ccc(CNC(=O)N2CCN(S(=O)(=O)c3ccccc3F)CC2)cc1` as the compound, how does the Potency read?
A: The Potency was inconclusive: 3.7 µM [inhibitor, partial curve, poor fit].

Q: Which Potency does the source give for `CC(=O)NC(=S)Nc1ccc(NC(=S)NC(=O)c2cccs2)cc1` here?
A: The Potency was inconclusive: 5.86 µM [inhibitor, partial curve, poor fit].

Q: Which Potency does the source give for `CC(NC(=O)c1cn(C)c2ccc(S(=O)(=O)N3CCCC3)cc2c1=O)c1ccc2c(c1)OCCO2` (stereo not given) here?
A: The Potency was inconclusive: 5.22 µM [inhibitor, partial curve, poor fit].

Q: For `CN(NC(=O)c1ccccc1Cl)c1ncc(C(F)(F)F)cc1Cl`, which Potency is on record?
A: Its Potency is “inactive”.

Q: Which Potency does the source give for `CCN(c1ccccc1)S(=O)(=O)c1ccc(Cl)c(NC(=O)COC(=O)c2cc(O)c3ccccc3c2O)c1` here?
A: Its Potency is active: 13.1 µM.

Q: Which Potency does the source give for `Clc1ccc(OCc2nn3c(-c4ccco4)nnc3s2)cc1` here?
A: The Potency was active: 14.7 µM.

Q: With `O=C(c1ccccc1)C(O)c1ccccc1` (stereo not given) as the compound, how does the Potency read?
A: Its Potency is “inactive and inconclusive: 12 µM [inhibitor, partial curve, poor fit]”.

Q: Which Potency does the source give for `CN1CCN(Cc2nnc(-c3ccccc3)o2)CC1` here?
A: The Potency was “inactive”.

Q: Which Potency does the source give for `CC(C(=O)NCc1ccccc1Cl)n1cc([N+](=O)[O-])cn1` (stereo not given) here?
A: Its Potency is “inactive”.

Q: With `CCN(CC)S(=O)(=O)c1ccc(N2CCOCC2)c(NC(=O)c2cc(-c3ccccn3)nc3ccccc23)c1` as the compound, how does the Potency read?
A: The Potency was active: 1.85 µM.

Q: For `CN(C)c1ccc(C(c2nnnn2CCOC(=O)Nc2ccc(Cl)cc2)N2CCOCC2)cc1` (stereo not given), which Potency is on record?
A: The Potency was “inactive”.

Q: For `COc1ccc(C2CC(=O)c3cnc(N4CCN(Cc5ccccc5)CC4)nc3C2)cc1` (stereo not given), which Potency is on record?
A: The Potency was active: 11.7 µM.

Q: Which Potency does the source give for `Cc1ccc(-c2nn(-c3ccccc3)cc2C2SCC(=O)N2Cc2ccccc2)o1` (stereo not given) here?
A: Its Potency is active: 10.4 µM.

Q: Which Potency does the source give for `Cc1ccc(S(=O)(=O)Nc2nc(C)c(C(=O)N/N=C/c3ccccc3)s2)cc1` here?
A: Its Potency is inconclusive: 16.5 µM [inhibitor, partial curve, poor fit].

Q: For `CCOC(=O)N1CCN(S(=O)(=O)c2ccc(C(=O)N(CCCN(C)C)c3nc4ccc(OC)cc4s3)cc2)CC1`, which Potency is on record?
A: The Potency was inconclusive: 18.5 µM [inhibitor, single point].

Q: For `Cc1ncc(CO)c2c1Oc1nc(-c3ccccc3)nc(SCC(=O)N(C)c3ccccc3)c1C2`, which Potency is on record?
A: The Potency was inconclusive: 9.28 µM [inhibitor, partial curve].

Q: With `O=C(c1cccc(Cl)c1)C1CCCN(S(=O)(=O)c2ccccc2)C1` (stereo not given) as the compound, how does the Potency read?
A: Its Potency is inconclusive: 16.5 µM [inhibitor, partial curve, poor fit].

Q: For `Cc1ccc(-n2c3c(cc(C(=O)NCc4ccco4)c2=O)C(=O)CC(C)(C)C3)cc1`, which Potency is on record?
A: The Potency was inconclusive: 13.1 µM [inhibitor, single point].

Q: With `CCCCCCSc1ccc([C@@H]2[C@@H]3C(=O)N(CC)C(=O)[C@@H]3[C@]3(C(=O)OC)CCCCN23)cc1OC` as the compound, how does the Potency read?
A: Its Potency is active: 1.85 µM.

Q: With `COc1cc(C(=O)NNC(=O)c2cc(-c3ccccc3)n[nH]2)cc(OC)c1C` as the compound, how does the Potency read?
A: Its Potency is inconclusive: 10.4 µM [inhibitor, single point].

Q: For `Cc1ccc(NC(=S)NC(NC(=O)c2ccccc2)C(Cl)(Cl)Cl)c(C)c1` (stereo not given), which Potency is on record?
A: The Potency was active: 10.4 µM.

Q: For `Cc1[nH]c2ccccc2c1CCN(Cc1cccnc1)C(=S)Nc1ccc(F)cc1`, which Potency is on record?
A: Its Potency is inconclusive: 10.4 µM [inhibitor, partial curve, poor fit].

Q: For `COc1ccc(C(=O)O)cc1S(=O)(=O)NC(C)C12CC3CC(CC(C3)C1)C2` (stereo not given), which Potency is on record?
A: Its Potency is inconclusive: 13.1 µM [inhibitor, partial curve, poor fit].

Q: Which Potency does the source give for `CCn1c(=O)c2cc(C(=O)NCCC(C)C)sc2c2ccccc21` here?
A: The Potency was inconclusive: 10.4 µM [inhibitor, partial curve].

Q: Which Potency does the source give for `C[C@H](NC(=O)c1nc[nH]c1C(=O)N[C@@H](CCCCN)C(=O)OC(C)(C)C)C(=O)OC(C)(C)C` here?
A: Its Potency is inconclusive: 16.5 µM [inhibitor, single point].

Q: With `CC(C)N(Cc1ccccc1)C(=O)C1CCCN(c2ncnc3c2nc2n3CCCCC2)C1` (stereo not given) as the compound, how does the Potency read?
A: Its Potency is inconclusive: 13.1 µM [inhibitor, partial curve].

Q: With `COc1cccc(COC(=O)c2ccc(S(=O)(=O)N3CCC(C)CC3)cc2)c1OC` as the compound, how does the Potency read?
A: The Potency was inconclusive: 4.65 µM [inhibitor, partial curve, poor fit].

Q: With `O=C(/C=C/c1ccc(S(=O)(=O)N2CCOCC2)cc1)NCc1ccccc1Cl` as the compound, how does the Potency read?
A: Its Potency is inconclusive: 4.65 µM [inhibitor, partial curve, poor fit].

Q: Which Potency does the source give for `Cc1ccc(/C(O)=C2/C(=O)C(=O)N(CCN3CCOCC3)C2c2cccs2)cc1` (stereo not given) here?
A: Its Potency is “inactive”.

Q: Which Potency does the source give for `CCc1ccc(NC(=O)CSc2nc3ccccc3c(=O)n2CCCN2CCC(C)CC2)cc1` here?
A: The Potency was inconclusive: 2.62 µM [inhibitor, partial curve, poor fit].

Q: Which Potency does the source give for `CCCn1c(C)cc(-c2csc(NC(=O)CCc3nc4ccccc4c(=O)[nH]3)n2)c1C` here?
A: The Potency was inconclusive: 6.57 µM [inhibitor, partial curve, poor fit].

Q: With `O=C(NCc1ccc2c(c1)OCO2)C1CCCN(S(=O)(=O)c2cccs2)C1` (stereo not given) as the compound, how does the Potency read?
A: The Potency was active: 9.28 µM.

Q: For `CN(CC1COc2ccccc2O1)C(=O)CSc1ncnc2sccc12` (stereo not given), which Potency is on record?
A: The Potency was inconclusive: 18.5 µM [inhibitor, single point].

Q: Which Potency does the source give for `CN=C(NC#N)NCCSCc1csc(N=C(N)N)n1` here?
A: Its Potency is “inactive”.

Q: For `Cc1c(C#N)c2ccccc2n1CC(=O)N1CCCC1`, which Potency is on record?
A: Its Potency is inconclusive: 1.04 µM [inhibitor, partial curve, poor fit].

Q: Which Potency does the source give for `COc1ccc(/C=C2\SC(=O)N(CCNC(=O)C3CC4C=CC3C4)C2=O)cc1` (stereo not given) here?
A: Its Potency is “inactive”.

Q: For `CN(C)NC(=S)Nc1cccc(C(F)(F)F)c1`, which Potency is on record?
A: The Potency was inconclusive: 11.7 µM [inhibitor, single point].

Q: With `CCOC(=O)c1sc(NC(=O)C(C)Sc2nnc(N)s2)nc1C` (stereo not given) as the compound, how does the Potency read?
A: Its Potency is “inactive”.

Q: Which Potency does the source give for `CCCN1CCN(c2ncnc3scc(C4COc5ccccc5O4)c23)CC1` (stereo not given) here?
A: Its Potency is inconclusive: 18.5 µM [inhibitor, single point].

Q: Which Potency does the source give for `Cc1ccc(C)c(N2CCN(C(=O)c3cc(S(=O)(=O)N4CCCC4)cn3C)CC2)c1` here?
A: The Potency was inconclusive: 5.22 µM [inhibitor, partial curve, poor fit].

Q: With `Cc1ccc(NC(=O)CSc2nc3c(c(=O)[nH]2)CCC3)cc1C` as the compound, how does the Potency read?
A: Its Potency is inconclusive: 4.15 µM [inhibitor, partial curve, poor fit].

Q: For `Cc1nc2c(C#N)cnn2c2c1CCN2CC1CCCO1` (stereo not given), which Potency is on record?
A: The Potency was “inactive”.

Q: With `Cc1ccc(C(=O)OCC(=O)NC2CCCCCC2)c(C)c1` as the compound, how does the Potency read?
A: The Potency was “inactive”.

Q: For `CC(=O)Nc1ccc(-n2nnnc2SCC(=O)NC2CCCC2)cc1`, which Potency is on record?
A: Its Potency is “inactive”.

Q: Which Potency does the source give for `CCC(C)(C)NC(=O)Nc1cc(Cl)ccc1OC` here?
A: Its Potency is inconclusive: 1.17 µM [inhibitor, full curve].

Q: For `COc1ccc(C(=O)N(CC2CCCO2)C(C(=O)NCCC(C)C)c2ccc(C)cc2)cc1OC` (stereo not given), which Potency is on record?
A: Its Potency is inconclusive: 11.7 µM [inhibitor, single point].

Q: For `O=C1NC[C@H](CC2CCCCC2)N(CCc2cccc(F)c2)C1=O`, which Potency is on record?
A: The Potency was inconclusive: 18.5 µM [inhibitor, single point].

Q: With `Cn1c(C(=O)NC2CCCCC2)cc2c(=O)n3ccccc3nc21` as the compound, how does the Potency read?
A: Its Potency is “inactive”.

Q: With `CCCC(=O)OC[C@@H](OC(=O)CCC)[C@@H](OC(=O)CCC)[C@H](Cn1c2nc(=O)[nH]c(=O)c-2nc2cc(C)c(C)cc21)OC(=O)CCC` as the compound, how does the Potency read?
A: Its Potency is inconclusive: 16.9 µM [inhibitor, single point].

Q: For `CC(=O)NN1C(=O)/C(=C2/Sc3ccc(Cl)cc3N2C)SC1=S`, which Potency is on record?
A: Its Potency is “inactive”.

Q: With `COc1ccc(CC(=O)Nc2c(C(N)=O)oc3ccccc23)cc1` as the compound, how does the Potency read?
A: Its Potency is inconclusive: 2.62 µM [inhibitor, single point].

Q: With `Cc1cc(C)n(-c2nnc(N3CCN(c4ccc(F)cc4)CC3)nn2)n1` as the compound, how does the Potency read?
A: Its Potency is inconclusive: 0.37 µM [inhibitor, full curve, poor fit].

Q: With `OCCCn1c(-c2ccccc2)nc(=S)c2c1CCCC2` as the compound, how does the Potency read?
A: Its Potency is inconclusive: 1.31 µM [inhibitor, partial curve, poor fit].

Q: With `CC[n+]1cc(-c2ccccc2)nc(N2CCOCC2)n1` as the compound, how does the Potency read?
A: The Potency was active: 2.33 µM.

Q: Which Potency does the source give for `CCNc1nc(C23CC4CC(CC(C4)C2)C3)cs1` here?
A: Its Potency is inconclusive: 11.7 µM [inhibitor, single point].

Q: Which Potency does the source give for `CCN1C(=O)C(CC(=O)Nc2ccc(F)cc2)N(CCCN2CCN(c3ccc(F)cc3)CC2)C1=S` (stereo not given) here?
A: The Potency was inconclusive: 11.7 µM [inhibitor, partial curve].

Q: Which Potency does the source give for `O=C(COc1cccnc1[N+](=O)[O-])N1CCN(S(=O)(=O)c2ccc3ccccc3c2)CC1` here?
A: The Potency was inconclusive: 10.4 µM [inhibitor, partial curve, poor fit].

Q: For `CCOC(=O)[C@H]1[C@H]2COc3ccc(Cl)cc3[C@@H]2N2C(=O)c3cc(Br)ccc3NC(=O)[C@@]12C`, which Potency is on record?
A: Its Potency is inconclusive: 13.1 µM [inhibitor, single point].

Q: Which Potency does the source give for `COc1ccc(-c2csc(N(CCCN(C)C)C(=O)c3ccccc3F)n2)cc1` here?
A: The Potency was inconclusive: 10.4 µM [inhibitor, single point].
